This is one part of the list.
How the values were obtained:
Test in all cases: glycan array binding signal (z-score within array); higher = stronger binding
Conditions in all cases: glycan notation: IUPAC condensed, linker removed
[1] = target: Neu5Ac(a2-6)Gal(b1-4)GlcNAc(b1-2)Man(a1-3)[Man(a1-6)]Man(b1-4)GlcNAc(b1-4)GlcNAc
Summary of the method: (§1)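 Glycan array data were curated from 3228 arrays in the Consortium for Functional Glycomics database and kept only where the protein sequence was available. Glycan names were converted to IUPAC-condensed notation, and columns mapping to the same glycan were averaged. The binding signal is a within-array Z-score, averaged across arrays of the same protein sequence at different concentrations or buffers and across linkers. Negative Z-scores can be read as non-binding.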

[2] = target: Neu5Ac(a2-6)Gal(b1-4)GlcNAc(b1-2)Man(a1-3)[Neu5Ac(a2-3)Gal(b1-4)GlcNAc(b1-2)Man(a1-6)]Man(b1-4)GlcNAc(b1-4)GlcNAc
Summary of the method: as §1

[3] = target: Neu5Ac(a2-6)Gal(b1-4)GlcNAc(b1-2)Man(a1-3)[Neu5Ac(a2-6)Gal(b1-4)GlcNAc(b1-2)Man(a1-6)]Man(b1-4)GlcNAc(b1-4)GlcNAc
Summary of the method: as §1

[4] = target: Neu5Ac(a2-6)Gal(b1-4)GlcNAc(b1-2)Man(a1-3)[Neu5Ac(a2-6)Gal(b1-4)GlcNAc(b1-2)Man(a1-6)]Man(b1-4)GlcNAc(b1-4)[Fuc(a1-6)]GlcNAc
Summary of the method: as §1

[5] = target: Neu5Ac(a2-6)Gal(b1-4)GlcNAc(b1-2)Man(a1-6)Man(b1-4)GlcNAc(b1-4)GlcNAc
Summary of the method: as §1

[6] = target: Neu5Ac(a2-6)Gal(b1-4)GlcNAc(b1-2)Man(a1-6)[Gal(b1-4)GlcNAc(b1-2)Man(a1-3)]Man(b1-4)GlcNAc(b1-4)GlcNAc
Summary of the method: as §1

[7] = target: Neu5Ac(a2-6)Gal(b1-4)GlcNAc(b1-2)Man(a1-6)[GlcNAc(b1-2)Man(a1-3)]Man(b1-4)GlcNAc(b1-4)GlcNAc
Summary of the method: as §1

[8] = target: Neu5Ac(a2-6)Gal(b1-4)GlcNAc(b1-2)Man(a1-6)[Man(a1-3)]Man(b1-4)GlcNAc(b1-4)GlcNAc
Summary of the method: as §1

[9] = target: Neu5Ac(a2-6)Gal(b1-4)GlcNAc(b1-2)[Neu5Ac(a2-6)Gal(b1-4)GlcNAc(b1-4)]Man(a1-3)[GlcNAc(b1-4)][Neu5Ac(a2-6)Gal(b1-4)GlcNAc(b1-2)[Neu5Ac(a2-6)Gal(b1-4)GlcNAc(b1-6)]Man(a1-6)]Man(b1-4)GlcNAc(b1-4)GlcNAc
Summary of the method: as §1

[10] = target: Neu5Ac(a2-6)Gal(b1-4)GlcNAc(b1-2)[Neu5Ac(a2-6)Gal(b1-4)GlcNAc(b1-4)]Man(a1-3)[GlcNAc(b1-4)][Neu5Ac(a2-6)Gal(b1-4)GlcNAc(b1-4)Man(a1-6)]Man(b1-4)GlcNAc(b1-4)GlcNAc
Summary of the method: as §1

[11] = target: Neu5Ac(a2-6)Gal(b1-4)GlcNAc(b1-2)[Neu5Ac(a2-6)Gal(b1-4)GlcNAc(b1-6)]Man(a1-6)[Neu5Ac(a2-6)Gal(b1-4)GlcNAc(b1-2)Man(a1-3)][GlcNAc(b1-4)]Man(b1-4)GlcNAc(b1-4)GlcNAc
Summary of the method: as §1

[12] = target: Neu5Ac(a2-6)Gal(b1-4)GlcNAc(b1-3)Gal(b1-3)GlcNAc
Summary of the method: as §1

[13] = target: Neu5Ac(a2-6)Gal(b1-4)GlcNAc(b1-3)Gal(b1-4)GlcNAc
Summary of the method: as §1

[14] = target: Neu5Ac(a2-6)Gal(b1-4)GlcNAc(b1-3)Gal(b1-4)GlcNAc(b1-2)Man(a1-3)[Neu5Ac(a2-6)Gal(b1-4)GlcNAc(b1-3)Gal(b1-4)GlcNAc(b1-2)Man(a1-6)]GalNAc
Summary of the method: as §1

[15] = target: Neu5Ac(a2-6)Gal(b1-4)GlcNAc(b1-3)Gal(b1-4)GlcNAc(b1-3)Gal(b1-4)GlcNAc
Summary of the method: as §1

[16] = target: Neu5Ac(a2-6)Gal(b1-4)GlcNAc(b1-3)Gal(b1-4)GlcNAc(b1-3)Gal(b1-4)GlcNAc(b1-2)Man(a1-3)[Neu5Ac(a2-6)Gal(b1-4)GlcNAc(b1-3)Gal(b1-4)GlcNAc(b1-3)Gal(b1-4)GlcNAc(b1-2)Man(a1-6)]GalNAc
Summary of the method: as §1

[17] = target: Neu5Ac(a2-6)Gal(b1-4)GlcNAc(b1-3)Gal(b1-4)GlcNAc(b1-3)GalNAc
Summary of the method: as §1

[18] = target: Neu5Ac(a2-6)Gal(b1-4)GlcNAc(b1-3)Gal(b1-4)GlcNAc(b1-3)[Neu5Ac(a2-6)Gal(b1-4)GlcNAc(b1-3)Gal(b1-4)GlcNAc(b1-6)]GalNAc
Summary of the method: as §1

[19] = target: Neu5Ac(a2-6)Gal(b1-4)GlcNAc(b1-3)Gal(b1-4)GlcNAc(b1-6)[Gal(b1-3)]GalNAc
Summary of the method: as §1

[20] = target: Neu5Ac(a2-6)Gal(b1-4)GlcNAc(b1-3)Gal(b1-4)[Fuc(a1-3)]GlcNAc(b1-3)Gal(b1-4)[Fuc(a1-3)]GlcNAc
Summary of the method: as §1

[21] = target: Neu5Ac(a2-6)Gal(b1-4)GlcNAc(b1-3)GalNAc
Summary of the method: as §1

[22] = target: Neu5Ac(a2-6)Gal(b1-4)GlcNAc(b1-3)[Neu5Ac(a2-6)Gal(b1-4)GlcNAc(b1-6)]GalNAc
Summary of the method: as §1

[23] = target: Neu5Ac(a2-6)Gal(b1-4)GlcNAc(b1-6)GalNAc
Summary of the method: as §1

[24] = target: Neu5Ac(a2-6)Gal(b1-4)GlcNAc(b1-6)[Gal(b1-3)GlcNAc(b1-3)]Gal(b1-4)Glc
Summary of the method: as §1

[25] = target: Neu5Ac(a2-6)Gal(b1-4)GlcNAc(b1-6)[Gal(b1-3)]GalNAc
Summary of the method: as §1

[26] = target: Neu5Ac(a2-6)Gal(b1-4)GlcNAc6S
Summary of the method: as §1

Neu5Ac(a2-6)GalNAc = target: Neu5Ac(a2-6)GalNAc
Summary of the method: as §1

[27] = target: Neu5Ac(a2-6)GalNAc(b1-4)GlcNAc
Summary of the method: as §1

[28] = target: Neu5Ac(a2-6)GalNAc(b1-4)GlcNAc6S
Summary of the method: as §1

[29] = target: Neu5Ac(a2-6)GlcNAc(b1-4)GlcNAc
Summary of the method: as §1

B1: a L Fucosidase (Streptosporangium roseum), D2B1P1_STRRD (protein)
chain: MRRKLLLVPAVGLLVIGSIFATQPVASADTPPVYEPTVESLNSHPVPQWFNDDKFGIFIHWGAYSVPAWGPRGSYAEWYGNYMNAGGSATNAHHKATYGQDFNYDAFLQQWKAEKFDPADWVKLFKDAGAKYFVLTSKHHEGMALWDSKSSGRDSVDLGPGRDLAKELFDAARKDEAKLKAGFYYSLYEWYNPAYTGRPATNPYTGAEIPYTGAPGGGDYVKDYMLPQMRELIDGYDPDIIWCDGQWEKPASYWNTAGVIADYYNKALNSGKEVAVANRCKIQSGNLDSPELDFQTPEYTVKPDIDPVKWESSRGIAHSYGYNQNEPEEDHLTSDQLVDSLVDIVSKNGNLLLDIGPKADGTIPEIQRQRLLDIGAWLKANGEAIYGTTYWNRAEEKGGPDDVRYTAKDATLYATALKWPGEQLTLGADLPVDHSTRITMLGSGARLSWSRDEQGRVVVNTPQEAGKHAYVFKIETPGVRSLLRTSSSLAKEIAPGRTISGELTVTNPGKRHTPATKLSLTVPQGWTATLGAPRVRPLGPGESVKVPISVSAPEGVAPAPYTLGLYQRTGRMGTTTALPLTVNRPNLSLGKPATQKSTGYDAPASRAVDGNTGGDWSAGSTTHTAEPEKQAWWQVDLGASARLDSVDVWNRLDCCADRLKDFWVMASDQPFTTDDLDQARTAPGVTAVHVGEQAGSPSKVKLPEGTRGRYVRIQLASPSNPLSLAEVQVRGSMARPNLSLGKPATQKSTGYDAPASRAVDGNTGGDWSAGSTTHTAEPEKQAWWQVDLGASARLDSVDVWNRLDCCADRLKDFWVMASDQPFTTDDLDQARTAPGVTAVHVGEQAGSPSKVKLPEGTRGRYVRIQLASPSNPLSLAEVQVRLEHHHHHHS
[1]
  glycan array binding signal (z-score): -0.406
[2]
  glycan array binding signal (z-score): 0.664
[3]
  glycan array binding signal (z-score): -0.03
[4]
  glycan array binding signal (z-score): -0.487
[5]
  glycan array binding signal (z-score): -0.48
[6]
  glycan array binding signal (z-score): -0.503
[7]
  glycan array binding signal (z-score): -0.114
[8]
  glycan array binding signal (z-score): -0.484
[9]
  glycan array binding signal (z-score): -0.344
[10]
  glycan array binding signal (z-score): -0.202
[11]
  glycan array binding signal (z-score): -0.312
[12]
  glycan array binding signal (z-score): -0.025
[13]
  glycan array binding signal (z-score): -0.475
[14]
  glycan array binding signal (z-score): 0.509
[15]
  glycan array binding signal (z-score): 0.011
[16]
  glycan array binding signal (z-score): 0.592
[17]
  glycan array binding signal (z-score): 0.041
[18]
  glycan array binding signal (z-score): -0.028
[19]
  glycan array binding signal (z-score): -0.127
[20]
  glycan array binding signal (z-score): -0.416
[21]
  glycan array binding signal (z-score): 1.01
[22]
  glycan array binding signal (z-score): -0.198
[23]
  glycan array binding signal (z-score): -0.221
[24]
  glycan array binding signal (z-score): -0.507
[25]
  glycan array binding signal (z-score): -0.302
[26]
  glycan array binding signal (z-score): 0.326
Neu5Ac(a2-6)GalNAc
  glycan array binding signal (z-score): -0.523
[27]
  glycan array binding signal (z-score): -0.505
[28]
  glycan array binding signal (z-score): -0.481
[29]
  glycan array binding signal (z-score): -0.55

From the supplement of paper PMC8728848
